Data: the supplement of paper PMC6746778
The list shows a part of the results. Many values rest on one well or one pass, so single values are uncertain.

Legend:
Test in all cases: proliferation Z-score within cell line (SRB, relative to all inhibitors screened on that line); triple-negative breast cancer lines and a kinase inhibitor library; SRB is the sulforhodamine B protein stain; higher = less growth inhibition (more resistant)
Conditions in all cases: concentration: 1 µM; 4 days
Bt20 = system: Bt20
Bt549 = system: Bt549
HCC1143 = system: HCC1143
HCC1806 = system: HCC1806
HCC1937 = system: HCC1937
HCC38 = system: HCC38
HCC70 = system: HCC70
Hs578T = system: Hs578T
MDA-MB-231 = system: MDA-MB-231
MDA-MB-435s = system: MDA-MB-435s
MDA-MB-436 = system: MDA-MB-436
MDA-MB-453 = system: MDA-MB-453
MDA-MB-468 = system: MDA-MB-468
SKBR7 = system: SKBR7
SUM1315MO2 = system: SUM1315MO2
SUM149PT = system: SUM149PT
SUM159PT = system: SUM159PT
SUM185PE = system: SUM185PE
SUM229PE = system: SUM229PE
SUM52PE = system: SUM52PE
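Also: Single-dose primary screen of a 378-member kinase inhibitor library in 96-well plates, with growth read as absorbance of protein-bound SRB dye after TCA fixation.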

Row | Structure (SMILES) | proliferation Z-score within cell line (Bt20) | proliferation Z-score within cell line (Bt549) | proliferation Z-score within cell line (HCC1143) | proliferation Z-score within cell line (HCC1806) | proliferation Z-score within cell line (HCC1937) | proliferation Z-score within cell line (HCC38) | proliferation Z-score within cell line (HCC70) | proliferation Z-score within cell line (Hs578T) | proliferation Z-score within cell line (MDA-MB-231) | proliferation Z-score within cell line (MDA-MB-435s) | proliferation Z-score within cell line (MDA-MB-436) | proliferation Z-score within cell line (MDA-MB-453) | proliferation Z-score within cell line (MDA-MB-468) | proliferation Z-score within cell line (SKBR7) | proliferation Z-score within cell line (SUM1315MO2) | proliferation Z-score within cell line (SUM149PT) | proliferation Z-score within cell line (SUM159PT) | proliferation Z-score within cell line (SUM185PE) | proliferation Z-score within cell line (SUM229PE) | proliferation Z-score within cell line (SUM52PE)
1 | Cn1cc(-c2ccc3nnc(C(F)(F)c4ccc5ncccc5c4)n3n2)cn1 | 0.0858 | 0.304 | 0.494 | 0.127 | 0.435 | 0.133 | 0.427 | 0.497 | 0.882 | 0.447 | 0.644 | 0.11 | 0.787 | 0.0993 | 0.391 | 0.248 | 0.106 | 0.54 | 0.0431 | 0.629
2 | Nc1ccc(-c2ccc3ncc4ccc(=O)n(-c5cccc(C(F)(F)F)c5)c4c3c2)cn1 [Torin 2] | -1.79 | -1.64 | -0.735 | 0.856 | -1.43 | -0.93 | -1.57 | -1.71 | -1.48 | -1.6 | -1.45 | -1.36 | -1.43 | -1.5 | -1.17 | -1.72 | -1.32 | -1.43 | -1.82 | -1.26
3 | C#Cc1cccc(Nc2ncnc3cc(OCCOC)c(OCCO)cc23)c1 | -0.21 | 0.593 | 0.514 | -1.38 | 0.561 | 0.402 | 0.612 | 0.373 | 0.704 | 0.768 | 0.613 | 0.607 | -0.596 | 0.577 | 0.697 | -0.492 | 0.464 | 0.972 | -0.101 | 0.928
4 | CO[C@H]1C[C@@H]2CC[C@@H](C)[C@@](O)(O2)C(=O)C(=O)N2CCCC[C@H]2C(=O)O[C@H]([C@H](C)C[C@@H]2CC[C@@H](OCCO)[C@H](OC)C2)CC(=O)[C@H](C)/C=C(\C)[C@@H](O)[C@@H](OC)C(=O)[C@H](C)C[C@H](C)/C=C/C=C/C=C/1C [Everolimus (RAD001)] | -1.32 | -2.06 | -0.388 | 0.423 | -1.27 | -0.487 | -1.35 | -2.38 | -0.705 | -0.603 | -1.39 | -1.75 | -0.676 | -0.974 | -0.952 | -0.456 | -0.704 | -0.979 | -0.97 | -0.995
5 | N#CCNC(=O)c1ccc(-c2ccnc(Nc3ccc(N4CCOCC4)cc3)n2)cc1 | 0.825 | 0.617 | -0.139 | 0.633 | -0.357 | 0.557 | 0.508 | 0.562 | -0.343 | 0.196 | 0.376 | 0.663 | -0.229 | 0.711 | 0.174 | 0.16 | 0.584 | 0.584 | 0.918 | 1.17
6 | CCCS(=O)(=O)Nc1ccc(F)c(C(=O)c2c[nH]c3ncc(-c4ccc(Cl)cc4)cc23)c1F [Vemurafenib (PLX4032, RG7204)] | 0.089 | 0.543 | -0.771 | 0.759 | -1.9 | 0.654 | -1.98 | 0.764 | 0.646 | -1.5 | -1.68 | 0.788 | 0.579 | 0.487 | 0.457 | 0.752 | -1.24 | 0.236 | 1.28 | 0.118
